# Results: the supplement of paper PMC8728848
# The other results are listed elsewhere or left out.
# What was measured:
# Assay in all cases: glycan array binding signal (z-score within array); higher = stronger binding
# Conditions in all cases: glycan notation: IUPAC condensed, linker removed
# [1] = biological target: GlcNAc(b1-6)Gal(b1-4)GlcNAc
# Outline: (§1)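 Glycan array data were curated from 3228 arrays in the Consortium for Functional Glycomics database and kept only where the protein sequence was available. Glycan names were converted to IUPAC-condensed notation, and columns mapping to the same glycan were averaged. The binding signal is a within-array Z-score, averaged across arrays of the same protein sequence at different concentrations or buffers and across linkers. Negative Z-scores can be read as non-binding.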
# GlcNAc(b1-6)GalNAc = biological target: GlcNAc(b1-6)GalNAc
# Outline: as §1
# GlcNAc3Prop(b1-4)GlcNAc = biological target: GlcNAc3Prop(b1-4)GlcNAc
# Outline: as §1
# [2] = biological target: GlcNAc6S(b1-3)Gal(b1-4)GlcNAc
# Outline: as §1
# Kdn(a2-3)Gal(b1-3)GalNAc = biological target: Kdn(a2-3)Gal(b1-3)GalNAc
# Outline: as §1
# Kdn(a2-3)Gal(b1-3)GlcNAc = biological target: Kdn(a2-3)Gal(b1-3)GlcNAc
# Outline: as §1
# Kdn(a2-3)Gal(b1-4)Glc = biological target: Kdn(a2-3)Gal(b1-4)Glc
# Outline: as §1
# Kdn(a2-3)Gal(b1-4)GlcNAc = biological target: Kdn(a2-3)Gal(b1-4)GlcNAc
# Outline: as §1
# [3] = biological target: Kdn(a2-3)Gal(b1-4)[Fuc(a1-3)]GlcNAc
# Outline: as §1
# Kdn(a2-6)Gal(b1-4)GlcNAc = biological target: Kdn(a2-6)Gal(b1-4)GlcNAc
# Outline: as §1
# [4] = biological target: Man(a1-2)Man(a1-2)Man(a1-3)Man
# Outline: as §1
# [5] = biological target: Man(a1-2)Man(a1-2)Man(a1-6)[Man(a1-3)]Man
# Outline: as §1
# Man(a1-2)Man(a1-3)Man = biological target: Man(a1-2)Man(a1-3)Man
# Outline: as §1
# [6] = biological target: Man(a1-2)Man(a1-3)[Man(a1-2)Man(a1-6)]Man
# Outline: as §1
# [7] = biological target: Man(a1-2)Man(a1-3)[Man(a1-2)Man(a1-6)]Man(a1-6)[Man(a1-2)Man(a1-2)Man(a1-3)]Man
# Outline: as §1
# [8] = biological target: Man(a1-2)Man(a1-3)[Man(a1-2)Man(a1-6)]Man(a1-6)[Man(a1-2)Man(a1-2)Man(a1-3)]Man(b1-4)GlcNAc(b1-4)GlcNAc
# Outline: as §1
# [9] = biological target: Man(a1-2)Man(a1-3)[Man(a1-6)]Man(a1-6)[Man(a1-2)Man(a1-3)]Man(b1-4)GlcNAc(b1-4)GlcNAc
# Outline: as §1
# [10] = biological target: Man(a1-2)Man(a1-6)[Man(a1-3)]Man(a1-6)[Man(a1-2)Man(a1-2)Man(a1-3)]Man
# Outline: as §1
# [11] = biological target: Man(a1-2)Man(a1-6)[Man(a1-3)]Man(a1-6)[Man(a1-2)Man(a1-2)Man(a1-3)]Man(b1-4)GlcNAc(b1-4)GlcNAc
# Outline: as §1
# Man(a1-3)[Man(a1-6)]Man = biological target: Man(a1-3)[Man(a1-6)]Man
# Outline: as §1
# [12] = biological target: Man(a1-3)[Man(a1-6)]Man(a1-6)[Man(a1-2)Man(a1-3)]Man(b1-4)GlcNAc(b1-4)GlcNAc
# Outline: as §1
# [13] = biological target: Man(a1-3)[Man(a1-6)]Man(a1-6)[Man(a1-3)]Man
# Outline: as §1
# [14] = biological target: Man(a1-3)[Man(a1-6)]Man(a1-6)[Man(a1-3)]Man(b1-4)GlcNAc(b1-4)GlcNAc
# Outline: as §1
# [15] = biological target: Man(a1-3)[Man(a1-6)]Man(b1-4)GlcNAc(b1-4)GlcNAc
# Outline: as §1
# Man(a1-6)Man = biological target: Man(a1-6)Man
# Outline: as §1
# Man(b1-4)GlcNAc = biological target: Man(b1-4)GlcNAc
# Outline: as §1
# Neu5Ac(a2-3)Gal = biological target: Neu5Ac(a2-3)Gal
# Outline: as §1
# [16] = biological target: Neu5Ac(a2-3)Gal(b1-3)GalNAc
# Outline: as §1
# [17] = biological target: Neu5Ac(a2-3)Gal(b1-3)GalNAc(b1-3)Gal(a1-4)Gal(b1-4)Glc
# Outline: as §1
# [18] = biological target: Neu5Ac(a2-3)Gal(b1-3)GalNAc(b1-4)[Neu5Ac(a2-3)]Gal(b1-4)Glc
# Outline: as §1
binder,measurement,setting,value
"CwpV (Clostridium difficile), B6EFG6 (protein) MKIPKKIAAMLTVTMIAGSSTAGIASAQTVATNLTGQERYETAVKISQDGWKNADEVVIVNDSSIADALSATPFAKAKNAPILLTSKDKLNDKTKAEIQRLKAKKVYLIGGTSVLSTNIEKEIKDLKISFERISGAERYQTSLELAKKLDAISDVKKIAVVNGEKGLADAVSVGAPAAQNNMPVILADSKNGTAVADKFIKDAGITQSYVVGGESSISEAVKNKLPNSTRLGGTDRNDTNAKVIKEFYKKTDLKNAYVTKDGMNKQDQLIDALAVGVLGAKNQSPVVLVGKNLSASQKSLVNSKSFDKITKVGGNGNETAFNEMKSLQEVKTVEAKTISELKSAIDKATANDVINFKPTSEVKEAFTIQTDKAVTVNLNGTYTKTVTINMPNGDVNNYAKVDDVVIDDVKDGTFVNYGKITNLKVNDKNGAKIENNSKGEIGSLTVASGASQVKVTNGGKITTVTNNSKGTTIDNKGTISSVKGDNSPTISGNSPSSNSSGGSSSSGGSSGGSSGGSSSSKVGQIKFSATDKQIKMASGDKTVDPSDNTYILKLTNGTVKDGDVKANVKVAGLPSGLDYTAVGNRSANTITITVSGTTSQSIQNDLNNVSVLVKAGAVSGTGATDSIANTTFEIKKYVAAPAVGQLTFDATDKQIKMASGDKTVDPSDDTYVLTLTKGTAKDGDIKANVEVTGLPSGLDYTAEGDSSANTITIPVSGTASPAVQTDLDNVSVLVKAGAVSETTATDSAANATFEVKKYVAPAVGQLTFDATDKQIKMASGDKTVDPSDDTYVLTLTKGTAKDGDIKANVEVTGLPSGLDYTAEGDSSANTITITVSGTASQAVQTDLDNVSVLVKAGAVSETTATDSAANATFEVKKYVAPAIGQLTFDATDKQIKMASGDKTVDPSDDTYVLTLTKGTAKDGDIKANVEVTGLPSGLDYTAEGDSSANTITITVSGTASQAVQTDLDNVSVLVKAGAVSETTATDSAANATFEVKKHASDPISTIGKISSGLSSLFNILK",glycan array binding signal (z-score),[1],-0.281
same,glycan array binding signal (z-score),GlcNAc(b1-6)GalNAc,-0.262
same,glycan array binding signal (z-score),GlcNAc3Prop(b1-4)GlcNAc,-0.262
same,glycan array binding signal (z-score),[2],0.75
same,glycan array binding signal (z-score),Kdn(a2-3)Gal(b1-3)GalNAc,0.224
same,glycan array binding signal (z-score),Kdn(a2-3)Gal(b1-3)GlcNAc,-0.065
same,glycan array binding signal (z-score),Kdn(a2-3)Gal(b1-4)Glc,-0.262
same,glycan array binding signal (z-score),Kdn(a2-3)Gal(b1-4)GlcNAc,-0.23
same,glycan array binding signal (z-score),[3],0.153
same,glycan array binding signal (z-score),Kdn(a2-6)Gal(b1-4)GlcNAc,-0.162
same,glycan array binding signal (z-score),[4],0.915
same,glycan array binding signal (z-score),[5],-0.062
same,glycan array binding signal (z-score),Man(a1-2)Man(a1-3)Man,-0.105
same,glycan array binding signal (z-score),[6],-0.273
same,glycan array binding signal (z-score),[7],-0.28
same,glycan array binding signal (z-score),[8],-0.294
same,glycan array binding signal (z-score),[9],0.121
same,glycan array binding signal (z-score),[10],-0.258
same,glycan array binding signal (z-score),[11],-0.037
same,glycan array binding signal (z-score),Man(a1-3)[Man(a1-6)]Man,-0.329
same,glycan array binding signal (z-score),[12],-0.301
same,glycan array binding signal (z-score),[13],-0.348
same,glycan array binding signal (z-score),[14],-0.272
same,glycan array binding signal (z-score),[15],-0.29
same,glycan array binding signal (z-score),Man(a1-6)Man,-0.302
same,glycan array binding signal (z-score),Man(b1-4)GlcNAc,-0.211
same,glycan array binding signal (z-score),Neu5Ac(a2-3)Gal,-0.26
same,glycan array binding signal (z-score),[16],-0.083
same,glycan array binding signal (z-score),[17],11.2
same,glycan array binding signal (z-score),[18],-0.101
